Laboratory results taken from article PMC4336329 (PLoS ONE, 2015).
In all, about 310,000 compounds went through this assay and about 2,200 (0.71%) showed an effect of 50% or more. The effect is printed as a negative number. The list shows a part of the results.

target: human ether-à-go-go-related gene (hERG) potassium channel (human, UniProt Q12809); assay: primary screen, population patch clamp on CHO cells stably expressing hERG
Sequence (Q12809 whole entry, looked up): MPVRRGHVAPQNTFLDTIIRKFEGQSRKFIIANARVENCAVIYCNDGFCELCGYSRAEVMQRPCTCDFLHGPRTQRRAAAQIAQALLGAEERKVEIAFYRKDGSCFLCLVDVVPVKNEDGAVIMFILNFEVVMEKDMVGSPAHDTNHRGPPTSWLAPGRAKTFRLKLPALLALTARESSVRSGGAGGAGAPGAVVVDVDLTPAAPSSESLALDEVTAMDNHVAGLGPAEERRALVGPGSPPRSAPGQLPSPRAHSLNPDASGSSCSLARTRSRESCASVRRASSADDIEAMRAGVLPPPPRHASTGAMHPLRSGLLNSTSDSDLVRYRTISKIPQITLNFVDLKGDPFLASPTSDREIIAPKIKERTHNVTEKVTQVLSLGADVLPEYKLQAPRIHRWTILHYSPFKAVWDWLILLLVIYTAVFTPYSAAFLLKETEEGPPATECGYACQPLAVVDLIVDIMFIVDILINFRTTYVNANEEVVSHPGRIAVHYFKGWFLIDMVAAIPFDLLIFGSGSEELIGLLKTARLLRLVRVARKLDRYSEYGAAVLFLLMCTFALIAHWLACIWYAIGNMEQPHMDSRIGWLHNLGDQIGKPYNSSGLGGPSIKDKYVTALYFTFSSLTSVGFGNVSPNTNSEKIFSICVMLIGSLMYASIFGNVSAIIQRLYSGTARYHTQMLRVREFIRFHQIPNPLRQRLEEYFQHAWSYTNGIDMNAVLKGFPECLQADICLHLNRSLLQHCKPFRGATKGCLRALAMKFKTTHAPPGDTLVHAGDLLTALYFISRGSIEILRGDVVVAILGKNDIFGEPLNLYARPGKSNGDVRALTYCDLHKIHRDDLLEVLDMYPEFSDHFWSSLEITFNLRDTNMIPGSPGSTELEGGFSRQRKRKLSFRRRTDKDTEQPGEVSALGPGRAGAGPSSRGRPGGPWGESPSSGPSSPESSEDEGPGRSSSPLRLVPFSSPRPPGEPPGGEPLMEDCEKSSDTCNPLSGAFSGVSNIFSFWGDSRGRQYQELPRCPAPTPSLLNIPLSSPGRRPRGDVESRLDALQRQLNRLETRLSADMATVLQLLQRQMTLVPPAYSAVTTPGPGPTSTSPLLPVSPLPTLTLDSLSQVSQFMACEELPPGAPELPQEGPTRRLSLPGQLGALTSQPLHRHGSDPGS

Compound | hERG current change (%, negative = inhibition) at 1uM
CC(=O)NC1C(OC(=O)Cc2ccccc2)OC(COC(C)=O)C(OC(C)=O)C1OC(C)=O (centres unmarked) | 8.61%
O=C(Nc1nc(-c2cccnc2)cs1)c1ccccc1[N+](=O)[O-] | 11.9%
COc1ccccc1NC(=O)Nc1nc(CC(=O)Nc2ccccc2F)cs1 | 14.4%
COCc1c(C(=O)N2CCN(CCOc3ccccc3)CC2)oc2ccccc12 | -34.6%
O=C(O)c1ccc(/C=C2\COc3ccccc3C2=O)cc1 | 9.08%
CC(C)(C)NC(=O)C1CN(S(=O)(=O)c2ccccc2)CCN1S(=O)(=O)c1ccccc1 (centres unmarked) | 5.13%
CCOC(=O)c1cc(-c2ccc(C)cc2)n(CCC(=O)NCCN(C)C)c1C | -7.46%
CCN(CC(=O)Nc1ccc(NC(C)=O)cc1)C(=O)c1cccnc1Sc1ccc(C)c(C)c1 | 6.21%
COc1cccc(N2C(=O)C3C(C2=O)C2C=CC3C23CC3)c1 (centres unmarked) | 10%
COc1ccccc1/C=C/CN1CCC(n2nccc2NC(=O)C2CC2)CC1 | -37.8%
Cc1cc(C)c2c(=O)[nH]c(SCc3ccccc3C)nc2n1 | 15%
CCOC(=O)C(=NC1CCS(=O)(=O)C1)NNc1ccc(Br)cc1 (centres unmarked) | 7.49%
CCC1Oc2ccc(C)cc2N(CC(=O)NCCCN2CCCCC2CC)C1=O (centres unmarked) | 1.52%
CC1(C)C2CCC1(C)C(OC(=O)CSc1nc(N)cc(=O)[nH]1)C2 (centres unmarked) | 10.2%
O=C(NCc1n[nH]c(=S)n1-c1ccc(F)cc1)c1ccc(S(=O)(=O)N2CCOCC2)cc1 | 12.1%
COc1ccccc1N1CCN(C(=O)C(C)CS(=O)(=O)c2ccc3c(c2)NC(=O)CS3)CC1 (centres unmarked) | 10.8%
CC(=O)Nc1ccc(NC(=O)C(C)OC(=O)C2CCCC2)cc1 (centres unmarked) | 19.1%
CC1(c2ccc(OC(F)F)cc2)NC(=O)N(CC(=O)c2ccc3c(c2)OCO3)C1=O (centres unmarked) | -12.5%
CCO[C@H]1OC(C(=O)Nc2ccccc2)=C[C@@H](c2csc3ccccc23)[C@@H]1CCCO | 17.9%

Compound | hERG current change (%, negative = inhibition) at 1uM
O=C(O)c1ccc(S(=O)(=O)c2ccc3c(c2)C(=O)N(NC(=O)c2ccncc2)C3=O)cc1 | 5.01%
CC(C)(C)n1nnnc1C(c1cccc(C(F)(F)F)c1)N1CCC(O)CC1 (centres unmarked) | 4.89%
CCOC(=O)Nc1cccc(Cl)c1C | 13.3%
O=C(Cc1ccc(S(=O)(=O)N2CCCC2)s1)N1CCN(c2ccccc2)CC1 | 10.9%
CCc1cccc2c(C(=O)CSc3nnc(-c4ccoc4C)n3C)c[nH]c12 | 3%
Cc1ccc(C2C(C#N)=C(N)N(c3cccnc3)C3=C2C(=O)CCC3)s1 (centres unmarked) | 12%
O=C(C[n+]1cc(Br)cc2ccccc21)c1ccc(F)cc1.[Br-] | 1.5%
COc1ccc(C2C(C(=O)c3ccco3)=C(O)C(=O)N2Cc2cccnc2)cc1OC (centres unmarked) | 11.2%
NC(=O)c1cc2cc(Cl)ccc2oc1=O | 8.58%
Cl.c1ccc(CSCc2cn3ccccc3n2)cc1 | 12.7%
Cc1cccc(NC(=S)NCc2ccc3c(c2)OCO3)c1 | 10.1%
O=C(COC(=O)C1CC(O)CN1C(=O)Oc1ccccc1)c1ccc(Br)cc1 (centres unmarked) | 4.64%
NC(=O)NC(CC(=O)NCCCc1ccccc1)c1ccc(Cl)cc1 (centres unmarked) | 6.05%
Cc1ccccc1NC(=O)c1ccccc1NS(=O)(=O)c1cccc2cccnc12 | 9.18%
COC(C[C@@H](O)C[C@@H](O)[C@@H](C)OCc1ccccc1)OC | 12.9%
O=C(CSc1nnc(-c2ccc(F)cc2)n1CC1CCCO1)NCc1ccco1 (centres unmarked) | 13.4%
O=C(Nc1ccc(Cl)cc1C(=O)N1CCCCC1)c1ccco1 | 13.2%
O=C(Nc1nc2c(s1)CCCC2)c1cccnc1 | -1.52%
CCC(=O)Nc1ccc(Oc2ccc(NC(=O)CC)c(NC(=O)CC)c2)cc1 | 8.73%

Compound | hERG current change (%, negative = inhibition) at 1uM
COc1ccc(-c2nnc(SCC(N)=O)n2N)cc1 | 8.86%
O=C(/C=C/c1cccnc1)c1cccc(O)c1 | 14.3%
O=C(CSc1nnc(-c2ccccc2Cl)o1)Oc1ccc(Br)cc1 | 24.7%
O=C(/C=C/c1ccco1)NC(=S)Nc1ccc(C(=O)O)cc1 | 10.6%
CCC(=NCc1cc(OC)cc(OC)c1)c1c(O)n(C2CCCCC2)c(=O)[nH]c1=O | 18.5%
CCc1cc(C(=O)N2CCN(c3ncc(C(F)(F)F)cc3Cl)CC2)sc1C | 6.5%
Cc1ccc(OCC(=O)NNC(=O)Cn2c(=O)cnc3ccccc32)cc1 | 9.53%
Cc1nn(C)cc1S(=O)(=O)N1CCN(c2cccc(Cl)c2)CC1 | 14%
NC(=O)N\N=C/C=C/C=C/c1ccc(F)cc1 | 17.8%
CC(C)CC(c1nnnn1Cc1cccs1)N1CCN(c2nc3ccccc3s2)CC1 (centres unmarked) | 7.06%
CNS(=O)(=O)c1cc(Cl)ccc1Sc1ccccc1C(=O)O | 12.6%
COC(C[C@H]1O[C@H]1C(=O)[C@H](C)OCc1ccccc1)OC | 18.3%
COc1ccc(Cn2c(=O)c3cccnc3n(Cc3ccc([N+](=O)[O-])cc3)c2=O)cc1 | 10.9%
Cc1nc(-c2ccc(S(=O)(=O)Nc3cccc(Cl)c3)cc2)co1 | 17.3%
c1ccc2c(c1)nc1n2CCN1CCNC1CCCCC1 | -0.965%
Cc1cc(C(=O)COc2cccc3cccnc23)c(C)n1C | 14.2%
Cc1cc(=O)[nH]c(SCC(=O)c2ccc(C)c(C)c2)n1 | 18.1%
Cc1ccc2nc(-c3ccccc3)nc(SC(C)C(=O)NCc3cccs3)c2c1 (centres unmarked) | 16.6%
